{"source": "paper PMC4336329", "about": "(PLoS ONE, 2015)", "note": "Screen size: about 310,000 compounds; about 2,200 (0.71%) showed an effect of 50% or more. The effect is printed as a negative number. This is one part of the list.", "data": [{"biological_target": "human ether-à-go-go-related gene (hERG) potassium channel (human, UniProt Q12809)", "sequence (Q12809 whole entry, looked up)": "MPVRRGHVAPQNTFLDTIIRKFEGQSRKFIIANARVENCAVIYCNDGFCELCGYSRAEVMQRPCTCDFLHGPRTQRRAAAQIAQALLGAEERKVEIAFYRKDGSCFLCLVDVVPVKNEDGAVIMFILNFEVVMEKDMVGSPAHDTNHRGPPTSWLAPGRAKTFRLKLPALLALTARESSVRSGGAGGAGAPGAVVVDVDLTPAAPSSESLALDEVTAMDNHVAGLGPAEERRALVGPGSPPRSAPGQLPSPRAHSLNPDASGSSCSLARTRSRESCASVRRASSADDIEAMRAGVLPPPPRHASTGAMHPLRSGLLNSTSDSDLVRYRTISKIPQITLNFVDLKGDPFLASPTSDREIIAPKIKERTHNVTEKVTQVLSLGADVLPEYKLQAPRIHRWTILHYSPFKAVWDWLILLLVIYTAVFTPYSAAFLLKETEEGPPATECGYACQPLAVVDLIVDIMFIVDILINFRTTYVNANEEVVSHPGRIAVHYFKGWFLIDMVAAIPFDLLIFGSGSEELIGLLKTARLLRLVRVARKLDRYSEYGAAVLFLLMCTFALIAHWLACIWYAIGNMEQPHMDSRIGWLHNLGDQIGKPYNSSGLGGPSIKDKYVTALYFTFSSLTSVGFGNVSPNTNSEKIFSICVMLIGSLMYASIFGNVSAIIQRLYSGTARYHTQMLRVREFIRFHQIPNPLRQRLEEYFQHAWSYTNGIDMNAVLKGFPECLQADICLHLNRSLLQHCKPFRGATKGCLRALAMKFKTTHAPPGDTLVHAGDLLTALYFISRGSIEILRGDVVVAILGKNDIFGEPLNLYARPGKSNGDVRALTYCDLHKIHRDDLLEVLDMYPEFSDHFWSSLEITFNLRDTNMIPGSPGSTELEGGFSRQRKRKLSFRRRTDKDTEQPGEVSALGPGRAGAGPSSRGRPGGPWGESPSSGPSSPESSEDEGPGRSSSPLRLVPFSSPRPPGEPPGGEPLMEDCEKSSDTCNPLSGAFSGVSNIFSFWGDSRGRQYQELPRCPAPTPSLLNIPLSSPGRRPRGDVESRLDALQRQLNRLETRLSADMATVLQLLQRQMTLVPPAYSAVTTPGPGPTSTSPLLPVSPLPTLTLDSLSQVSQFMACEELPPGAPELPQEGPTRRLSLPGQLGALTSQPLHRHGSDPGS", "test": "primary screen, population patch clamp on CHO cells stably expressing hERG", "units": {"hERG current change (%, negative = inhibition) at 1uM": "%"}, "values": [{"smiles": "CSc1ccc(S(=O)(=O)NCC(=O)OCC(=O)N(C)Cc2ccccc2)cc1[N+](=O)[O-]", "hERG current change (%, negative = inhibition) at 1uM": 10.3}, {"smiles": "CCOc1ccc(NS(=O)(=O)c2ccc(C(=O)NCc3ccccn3)cc2)cc1", "hERG current change (%, negative = inhibition) at 1uM": 2.6}, {"smiles": "O=C1CCCC2=C1C1(CCCCC1)N=C(Nc1nc3ccccc3o1)N2", "hERG current change (%, negative = inhibition) at 1uM": 6.53}, {"smiles": "Cc1ccc2[nH]cc(C(=O)CN3CCN(C)CC3)c2c1", "hERG current change (%, negative = inhibition) at 1uM": 6.76}, {"smiles": "CCc1cc(=O)oc2c3c(cc(OCC(=O)NCc4ccco4)c12)OC(C)(C)CC3", "hERG current change (%, negative = inhibition) at 1uM": -4.95}, {"smiles": "Cc1oc(-c2cccc(Cl)c2)nc1CS(=O)(=O)CC(=O)NCCN1CCCC1", "hERG current change (%, negative = inhibition) at 1uM": 11.8}, {"smiles": "CN(Cc1ccccc1)C1=CC(=[N+]2CCCCC2)CC(C)(C)C1.[I-]", "hERG current change (%, negative = inhibition) at 1uM": -9.29}, {"smiles": "O=C1NC(=O)N(Cc2ccc(F)cc2)C(=O)/C1=C/c1cccs1", "hERG current change (%, negative = inhibition) at 1uM": 15.8}, {"smiles": "O=Cc1c(Cl)cccc1Cl", "hERG current change (%, negative = inhibition) at 1uM": 12.8}, {"smiles": "CCOC(=O)c1[nH]c2ccc(F)cc2c1N=C(C)N(CC)CC", "hERG current change (%, negative = inhibition) at 1uM": -25.9}, {"smiles": "O=C(NCc1ccco1)C1CC(=O)N(CCc2ccccc2)C1", "note": "(stereo not drawn)", "hERG current change (%, negative = inhibition) at 1uM": 13.5}, {"smiles": "O=C(NC1CC1)c1cccc(Nc2ccc(-c3ccc4c(c3)OCCO4)nn2)c1", "hERG current change (%, negative = inhibition) at 1uM": 2.92}, {"smiles": "COC(=O)CC1C(=O)NCCN1C(=O)CSc1nc2cc(Cl)ccc2o1", "note": "(stereo not drawn)", "hERG current change (%, negative = inhibition) at 1uM": 8.71}, {"smiles": "CCCCNC(=S)N(C)/N=C/c1ccc2c(c1)OCO2", "hERG current change (%, negative = inhibition) at 1uM": 12.7}, {"smiles": "Cc1ccc(S(=O)(=O)N(C)c2ccc(C(=O)Nc3ccccn3)cc2)cc1", "hERG current change (%, negative = inhibition) at 1uM": 19.4}, {"smiles": "COC(=O)C1CC(=O)c2sccc2C1", "note": "(stereo not drawn)", "hERG current change (%, negative = inhibition) at 1uM": 11.2}, {"smiles": "Cc1ccc(O)c(C(=O)c2cnc3c(c2)CN(C)C(=O)N3)c1", "hERG current change (%, negative = inhibition) at 1uM": 9.48}, {"smiles": "Cc1ccc(CNC(=O)CCC(=O)Nc2nnc(C3CCCCC3)s2)cc1", "hERG current change (%, negative = inhibition) at 1uM": 11.6}, {"smiles": "CCOC(=O)Cc1nc(-c2cccc(C(F)(F)F)c2)no1", "hERG current change (%, negative = inhibition) at 1uM": 3.32}, {"smiles": "C[C@@H](C[C@@H](O)[C@H](O)C(C)(C)O)[C@@H]1CC[C@]2(C)C3=CC[C@H]4C(C)(C)C(=O)CC[C@]4(C)[C@H]3CC[C@@]12C", "hERG current change (%, negative = inhibition) at 1uM": 14.2}, {"smiles": "COC(=O)c1ccccc1S(=O)(=O)N1CCC(C(=O)NCc2ccco2)CC1", "hERG current change (%, negative = inhibition) at 1uM": 4.79}, {"smiles": "Cc1ccc(C2CC(c3cccc(C)c3)n3nc(N)nc3N2)cc1", "note": "(stereo not drawn)", "hERG current change (%, negative = inhibition) at 1uM": -10.1}, {"smiles": "CCCCCOc1ccc(NC(=O)C2OC3OC(C)(C)OC3C3OC(C)(C)OC23)cc1", "note": "(stereo not drawn)", "hERG current change (%, negative = inhibition) at 1uM": 8.45}, {"smiles": "COc1ccc(C2=NS(=O)(=O)N(C)C(C(=O)Nc3ccc4c(c3)OCO4)=C2)cc1OC", "hERG current change (%, negative = inhibition) at 1uM": 15.9}, {"smiles": "O=[N+]([O-])c1ccc(CN2CC=C(c3ccccc3)CC2)cc1", "hERG current change (%, negative = inhibition) at 1uM": 7.24}, {"smiles": "C=CCn1c(SCC(=O)NCc2ccc3c(c2)OCO3)nc2scc(-c3ccccc3)c2c1=O", "hERG current change (%, negative = inhibition) at 1uM": 7.85}, {"smiles": "O=C(NCc1ccc(F)cc1)c1cnn2ccccc12", "hERG current change (%, negative = inhibition) at 1uM": 12.4}, {"smiles": "CS(=O)(=O)c1ccc2nc(NC(=O)c3cc4ccccc4o3)sc2c1", "hERG current change (%, negative = inhibition) at 1uM": 4.97}, {"smiles": "Cc1cc(C)nc(NC(=O)c2cc(-c3ccc(C)s3)nc3ccccc23)c1", "hERG current change (%, negative = inhibition) at 1uM": 9.29}, {"smiles": "COc1cccc(C(=O)NNS(=O)(=O)c2ccc(F)cc2)c1", "hERG current change (%, negative = inhibition) at 1uM": 14.2}, {"smiles": "O=C(Cc1ccc2c(c1)CCCC2)Nc1ccccc1Cl", "hERG current change (%, negative = inhibition) at 1uM": 7.42}, {"smiles": "CCOc1ccc(Cl)cc1S(=O)(=O)N1CCCC1", "hERG current change (%, negative = inhibition) at 1uM": 2.73}, {"smiles": "COc1ccc(-n2c(=O)cc(N3CCN(c4ccccc4OC)CC3)[nH]c2=O)cc1", "hERG current change (%, negative = inhibition) at 1uM": 5.29}, {"smiles": "Cc1ccc(C(=O)N2c3ccccc3N(Cc3ccccc3)C(=O)C2(C)C)cc1", "hERG current change (%, negative = inhibition) at 1uM": 4.69}, {"smiles": "N#C/C(=C\\c1c[nH]c2ccccc12)C(=O)NC1CCCC1", "hERG current change (%, negative = inhibition) at 1uM": 6.43}, {"smiles": "CC(=O)C1=C(C)NC(=O)NC1c1cccs1", "note": "(stereo not drawn)", "hERG current change (%, negative = inhibition) at 1uM": 18.6}, {"smiles": "Cc1nn(Cc2ccccc2Cl)c(C)c1C(=O)NC1=NCCS1", "hERG current change (%, negative = inhibition) at 1uM": 15.5}, {"smiles": "COCCN(C(=O)c1csnn1)C(C(=O)NC1CCCCC1)c1ccc(C)cc1", "note": "(stereo not drawn)", "hERG current change (%, negative = inhibition) at 1uM": 6.61}, {"smiles": "N#CCc1ccc(OC(=O)c2ccncc2)cc1", "hERG current change (%, negative = inhibition) at 1uM": 10.2}, {"smiles": "CSCCC(NS(=O)(=O)c1ccccc1F)C(=O)N1CCCCCC1", "note": "(stereo not drawn)", "hERG current change (%, negative = inhibition) at 1uM": 4.92}, {"smiles": "Cc1nc2c(C)cccc2cc1C(=O)N/N=C/c1cccnc1", "hERG current change (%, negative = inhibition) at 1uM": 11.1}, {"smiles": "COCC1CCN(C(=O)c2ccc3oc(Cc4ccc(Cl)cc4)nc3c2)C1", "note": "(stereo not drawn)", "hERG current change (%, negative = inhibition) at 1uM": 10.6}, {"smiles": "O=C(CCSc1ccccc1)NCc1cccnc1", "hERG current change (%, negative = inhibition) at 1uM": 4.47}, {"smiles": "O=C(O)C1CCN(C(=O)c2csc(-c3ccc4c(c3)CCO4)n2)CC1", "hERG current change (%, negative = inhibition) at 1uM": 10.6}, {"smiles": "CCCn1nnnc1NCc1ccc(Cl)cc1Cl", "hERG current change (%, negative = inhibition) at 1uM": 9.92}, {"smiles": "Cc1c(CCC(=O)NCCCn2ccnc2)c(=O)oc2cc3occ(C(C)(C)C)c3cc12", "hERG current change (%, negative = inhibition) at 1uM": 2.05}, {"smiles": "COCCn1c(=O)[nH]c2cc(C(=O)NCCN3CCN(c4ccccc4)CC3)ccc2c1=O", "hERG current change (%, negative = inhibition) at 1uM": 9.82}, {"smiles": "CCN1CC(C)C(O)(c2ccccc2)CC1C", "note": "(stereo not drawn)", "hERG current change (%, negative = inhibition) at 1uM": 13.4}, {"smiles": "CN1N=C2c3ccccc3CCC2C1c1ccc(C(F)(F)F)cc1", "note": "(stereo not drawn)", "hERG current change (%, negative = inhibition) at 1uM": 7.61}, {"smiles": "Cc1cc2c(s1)c1cnn(Cc3ccccc3F)c(=O)c1n2C", "hERG current change (%, negative = inhibition) at 1uM": 12.7}, {"smiles": "CC(C)Cc1ccc(C(C)C(=N)N)cc1.Cl", "note": "(stereo not drawn)", "hERG current change (%, negative = inhibition) at 1uM": 10.2}, {"smiles": "NC(=O)c1ccc(NC(=O)CSc2nnc(-c3ccccn3)n2N)cc1", "hERG current change (%, negative = inhibition) at 1uM": 9.92}, {"smiles": "Cn1c(=O)c2[nH]c(NCC3CCCO3)nc2n(-c2ccccc2)c1=O", "note": "(stereo not drawn)", "hERG current change (%, negative = inhibition) at 1uM": 2.16}, {"smiles": "Oc1ccc(Cl)c(Cl)c1Cl", "hERG current change (%, negative = inhibition) at 1uM": 12.6}, {"smiles": "COc1ccc([C@H]2CC(=O)C=C(c3ccc4c(c3)sc3ccccc34)C2)cc1", "hERG current change (%, negative = inhibition) at 1uM": 14.1}, {"smiles": "CC(C)CCN1CCN(Cc2ccc(C(F)(F)F)cc2)CC1CCO", "note": "(stereo not drawn)", "hERG current change (%, negative = inhibition) at 1uM": -31.6}, {"smiles": "Cn1c(CCCOc2ccc(Cl)cc2Cl)nnc1SCC(=O)Nc1cccc(F)c1", "hERG current change (%, negative = inhibition) at 1uM": 1.11}]}]}
